Data reported in patent US20250195653A1, “MULTIFUNCTIONAL NATURAL KILLER (NK) CELL ENGAGER COMBINATION THERAPY FOR TREATING HEMATOLOGICAL NEOPLASTIC DISORDERS” (SANOFI, priority 2023, published 2025).

Tested on: MOLM-13 RFP AML cells
Test: Incucyte in vitro killing assay with NK effector cells, E:T 1:1
Format: cell-based
Procedure: MOLM-13 RFP cells were generated by infecting MOLM-13 (DSMZ, ACC: 554) with the Incucyte® Nuclight Red Lentivirus (Sartorius #4476) to express a nuclear-restricted mKate2 (red fluorescent protein, RFP). MOLM-13 RFP cells were harvested in the same culture medium used for wild-type cells with the addition of 1 μg/mL of puromycin (Gibco, ref #A11138-03) to maintain the selection pressure.
Human NK cells were purified from PBMCs using MACSxpress® Whole Blood NK Cell Isolation Kit (Miltenyi, ref #130-127-695) according to supplier recommendations. […]
Cytotoxicity was evaluated using the Incucyte live-cells analysis system which allows to quantify the number of live fluorescent target cells over time.
First, 50 μL of CD123 NKCE and its isotype control were distributed in the appropriate wells of an F-bottom (flat-bottom) 96-well plate coated with poly-D-lysine (Greiner BioOne ref #655946). CD123 NKCE was tested at 5 ng/mL, while its isotype was evaluated at the highest concentration of 100 ng/ml. […]
The growth/proliferation of MOLM-13 RFP tumor cells was monitored by cell imaging up to 64 h using the Incucyte® S3 with standard scans every 4 h. […] Tumor cells growth/proliferation was calculated by counting the number of red cells at each time point, which was then normalized to the number of cells at time zero and expressed as a percentage.

B1: CD123 NKCE: multifunctional binding protein in F25 format with NKp46-binding and CD123-binding domains and competent Fc binding CD16a; bispecific NK cell engager (protein)
chain 1: DIVMTQSPDSLAVSLGERATINCESSQSLLSSGNQKNYLTWYQQKPGQPPKPLIYWASTRESGVPDRFSGSGSGTDFTLTISSLQAEDVAVYYCQNDYSYPYTFGQGTKLEIKRTVAAPSVFIFPPSDEQLKSGTASVVCLLNNFYPREAKVQWKVDNALQSGNSQESVTEQDSKDSTYSLSSTLTLSKADYEKHKVYACEVTHQGLSSPVTKSFNRGE[here human IgG1 Fc without letters]
chain 2: EVQLVQSGAEVKKPGESLKISCKGSGYSFTDYYMKWARQMPGKGLEWMGDIIPSSGATFYNQKFKGQVTISADKSISTTYLQWSSLKASDTAMYYCARSHLLRASWFAYWGQGTMVTVSSASTKGPSVFPLAPSSKSTSGGTAALGCLVKDYFPEPVTVSWNSGALTSGVHTFPAVLQSSGLYSLSSVVTVPSSSLGTQTYICNVNHKPSNTKVDKRV[here human IgG1 Fc without letters]TGSQVQLVQSGAEVKKPGSSVKVSCKASGYTFSDYVINWVRQAPGQGLEWMGEIYPGSGTNYYNEKFKAKATITADKSTSTAYMELSSLRSEDTAVYYCARRGRYGLYAMDYWGQGTTVTVSSASTKGPSVFPLAPSSKSTSGGTAALGCLVKDYFPEPVTVSWNSGALTSGVHTFPAVLQSSGLYSLSSVVTVPSSSLGTQTYICNVNHKPSNTKVDKRVEPKSCDKTHS
chain 3: DIQMTQSPSSLSASVGDRVTITCRASQDISNYLNWYQQKPGKAPKLLIYYTSRLHSGVPSRFSGSGSGTDFTFTISSLQPEDIATYFCQQGNTRPWTFGGGTKVEIKRTVAAPSVFIFPPSDEQLKSGTASVVCLLNNFYPREAKVQWKVDNALQSGNSQESVTEQDSKDSTYSLSSTLTLSKADYEKHKVYACEVTHQGLSSPVTKSFNRGEC
B1 was tested, and the “cytotoxic effect against MOLM-13 RFP cells as single agent” value (5, 10 and 100 ng/ml, compared to isotype control) was “cytotoxic effects” and the “target cell lysis, single agent” value (CD123 NKCE 5 ng/mL, AZA 600 nM or VEN 2 nM, with NK cells) was “increased target cell lysis; also recorded: some target lysis”.

Entries after “also recorded” stand apart in the source; their conditions may differ.
